Source: PubChem BioAssay AID1768 (National Center for Advancing Translational Sciences (NCATS), 2009)
“And” between values parts separate entries of the source, which are not always exact repeats. Identical values can stand only once. Among all 270,000 compounds or so, about 620 (0.23%) were called active. The inconclusive results got no clear call from the source; some entries with a clear call stand among them for comparison. The call rests on the fitted dose curve; in most records, active means well fitted inhibition curve with a large enough effect in the polarisation, with a control signal flat (not every such curve was filed as active); inconclusive means small, poorly fitted or top-dose-only effect, or effect the other way, or a change in a side signal; inactive means no such curve, though single readings can be large or run the other way; the % refers to the polarisation. Where the call is inconclusive, the potency comes from a doubtful curve fit. A note “side channel” means that the fit belongs to a control or component signal, not to the main read-out.
Potency means the concentration at half of the fitted maximal effect; tags describe the fitted curve by direction and shape or compound fluorescence and quenching.

What follows are compounds tested against Menin (Homo sapiens) (UniProt O00255) (assay: qHTS Assay for Inhibitors Targeting the Menin-MLL Interaction in MLL Related Leukemias: Competition With Texas Red Labeled MLL-derived Mutant Peptide). Settings: fluorescence polarization; series mostly up to 61.6 µM.
UniProt O00255, sequence (O00255 whole entry, looked up): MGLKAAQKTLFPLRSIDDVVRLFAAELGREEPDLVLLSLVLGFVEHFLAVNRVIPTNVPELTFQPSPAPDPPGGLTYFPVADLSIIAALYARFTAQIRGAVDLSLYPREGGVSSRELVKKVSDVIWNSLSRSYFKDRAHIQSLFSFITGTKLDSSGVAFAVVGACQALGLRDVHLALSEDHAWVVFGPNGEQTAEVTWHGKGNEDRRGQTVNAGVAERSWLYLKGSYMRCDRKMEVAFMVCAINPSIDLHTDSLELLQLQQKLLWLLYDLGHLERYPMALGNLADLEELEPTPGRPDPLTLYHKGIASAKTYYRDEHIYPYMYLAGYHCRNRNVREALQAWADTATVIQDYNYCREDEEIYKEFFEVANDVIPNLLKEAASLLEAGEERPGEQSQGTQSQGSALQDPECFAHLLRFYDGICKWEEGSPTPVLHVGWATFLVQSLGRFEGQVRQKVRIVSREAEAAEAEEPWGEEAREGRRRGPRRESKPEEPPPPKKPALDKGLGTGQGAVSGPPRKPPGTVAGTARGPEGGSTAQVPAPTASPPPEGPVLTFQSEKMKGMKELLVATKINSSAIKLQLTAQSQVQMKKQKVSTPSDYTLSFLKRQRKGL
In the case of `Cc1nn(-c2ccccc2)c(C)c1/C=N/n1cnnc1`, the Potency is reported as inconclusive: 39.8 µM [inhibitor, single point].
For `O=C(NCc1ccccc1Cl)C1CCN(S(=O)(=O)N2CCC3(CC2)OCCO3)CC1`, the Potency was inconclusive: 2.51 µM [inhibitor, full curve].
With `Cc1ccc(CNC(=O)Cc2ccc(-n3cccc3)cc2)cc1` the Potency was inconclusive: 25.1 µM [inhibitor, single point].
In the case of `Oc1ccc(-c2nccc(-c3ccc(Cl)cc3Cl)n2)cc1`, the Potency is reported as inconclusive: 12.6 µM [quencher, side channel, partial curve].
In the case of `COc1ccc(NC(=O)/C(C#N)=C\c2ccc(-c3cc(C(=O)O)ccc3C)o2)cc1`, the Potency is reported as inconclusive: 39.8 µM [quencher, side channel, single point].
For `N=c1c2c(n(Cc3ccc(Cl)c(Cl)c3)c3c1CCC3)CCCC2`, the Potency was “inactive”.
In the case of `N=C1C(c2nc3ccccc3s2)=C(O)CN1NC(=O)c1ccc([N+](=O)[O-])cc1`, the Potency is reported as inconclusive: 14.1 µM [quencher, side channel, partial curve].
In the case of `COc1ccc(NC(=O)CCNC(=O)c2ccco2)cc1S(=O)(=O)N(C)C`, the Potency is reported as inconclusive: 7.94 µM [fluorescent, side channel, partial curve].
For `CCN1CCN(C(=O)N[C@H](C(=O)N[C@@H]2C(=O)N3C(C(=O)O)=C(CSc4nnnn4C)CS[C@@H]23)c2ccc(O)cc2)C(=O)C1=O`, the Potency was “inactive”.
For `Cn1c(CC(=O)Nc2ccc(F)cc2)nnc1SCC(=O)Nc1nncs1`, the Potency was inconclusive: 22.4 µM [quencher, side channel, single point].
`COc1ccc(NC(=O)c2cc(C)cc(C)c2)cc1[N+](=O)[O-]` was tested, and the Potency was inconclusive: 20 µM [quencher, side channel, single point].
With `COc1ccccc1NC(=S)NC(=O)c1ccc(Cn2cc(Br)cn2)cc1` the Potency was inconclusive: 17.8 µM [quencher, side channel, partial curve].
For `Cc1c(NS(=O)(=O)c2ccc(Br)cc2)c(=O)n(-c2ccccc2)n1C`, the Potency was inconclusive: 44.7 µM [inhibitor, partial curve].
`O=c1c(O)c(-c2cc(O)c(O)c(O)c2)oc2cc(O)cc(O)c12` was tested, and the Potency was inconclusive: 12.6 µM [quencher, side channel, partial curve] and inconclusive: 25.1 µM [quencher, side channel, partial curve] and inconclusive: 20 µM [quencher, side channel, partial curve].
With `CCN(CC)S(=O)(=O)c1ccc(NC(=O)CNC2CCCCC2)cc1` the Potency was inconclusive: 12.6 µM [inhibitor, partial curve].
With `COC(=O)c1nn(-c2ccccc2)c(Sc2ccc(OC)cc2)c1/C=N/O` the Potency was inconclusive: 3.55 µM [inhibitor, single point].
`COC(=O)CSCc1nc2ccccc2[nH]c1=O` was tested, and the Potency was “inactive”.
In the case of `O=C(Nc1ccc(Br)cc1)c1cc([N+](=O)[O-])cc([N+](=O)[O-])c1`, the Potency is reported as inconclusive: 17.8 µM [quencher, side channel, partial curve].
`C/C(CC(=O)N1CCN(C=O)CC1)=N\NC(=O)c1cc2ccccc2cc1O` was tested, and the Potency was inconclusive: 22.4 µM [quencher, side channel, partial curve].
`CCOC(=O)c1cnc(-n2nc(C)cc2C)nc1NC1CCCCC1` was tested, and the Potency was inconclusive: 5.01 µM [fluorescent, side channel, partial curve, poor fit].
`COc1ccc(Nc2cc(Cl)ccc2C(=O)O)cn1` was tested, and the Potency was inconclusive: 28.2 µM [quencher, side channel, partial curve].
In the case of `COc1ccc(NC(=O)c2c(NC(=O)CCC(=O)O)sc3c2CCCCC3)cc1`, the Potency is reported as inconclusive: 11.2 µM [quencher, side channel, partial curve].
For `CS(=O)(=O)N1CCN(c2ccc(NC(=O)c3cc4ccccc4o3)cc2)CC1`, the Potency was inconclusive: 14.1 µM [quencher, side channel, partial curve].
For `COc1cc(NC(=O)c2ccc(OC)c([N+](=O)[O-])c2)ccc1NC(=O)c1cccs1`, the Potency was inconclusive: 14.1 µM [quencher, side channel, single point].
With `O=C(Nc1ccc(N=Nc2ccccc2)cc1)c1ccc(Cl)cc1Cl` the Potency was inconclusive: 31.6 µM [inhibitor, single point].
`O=S(=O)(c1cccs1)N1CCN(Cc2nc3ccccc3s2)CC1` was tested, and the Potency was “inactive”.
In the case of `S=c1nc2c(n[nH]1)c1ccccc1n2CCc1ccccc1`, the Potency is reported as inconclusive: 3.98 µM [inhibitor, partial curve].
With `O=C(CSc1n[nH]c(-c2ccccc2)n1)Nc1ccc(Br)cn1` the Potency was inconclusive: 39.8 µM [quencher, side channel, single point].
`Cc1[nH]c2ccccc2c1C(=O)/C=C/c1ccccc1` was tested, and the Potency was inconclusive: 25.1 µM [quencher, side channel, partial curve].
In the case of `COc1cc(NC(C)=O)c2ncccc2c1NC(C)=O`, the Potency is reported as “inactive”.
In the case of `COc1ccc(-c2cc(=O)c3c(O)cc(O)cc3o2)cc1`, the Potency is reported as inconclusive: 14.1 µM [quencher, side channel, partial curve] and inconclusive: 35.5 µM [quencher, side channel, partial curve].
With `Cc1nnsc1SCCNC(=O)Nc1ccc(Cl)cc1` the Potency was inconclusive: 11.2 µM [quencher, side channel, partial curve].
`Cc1ccc(NS(=O)(=O)c2ccc3c(c2)oc(=O)n3C)cc1F` was tested, and the Potency was inconclusive: 22.4 µM [quencher, side channel, single point].
With `CC(=O)c1cccc(NC(=O)Nc2csc3c2CCCC3)c1` the Potency was inconclusive: 14.1 µM [quencher, side channel, partial curve].
In the case of `COc1cc(/C=C2\SC(=O)NC2=O)ccc1Oc1ccc([N+](=O)[O-])cc1[N+](=O)[O-]`, the Potency is reported as inconclusive: 11.2 µM [quencher, side channel, partial curve].
In the case of `O=[N+]([O-])c1ccc(NC(=S)NCCc2ccc(Cl)cc2)cc1`, the Potency is reported as inconclusive: 7.08 µM [quencher, side channel, partial curve].
For `Cc1nc(N2CCC(C)CC2)c2oc3ccccc3c2n1`, the Potency was inconclusive: 22.4 µM [fluorescent, side channel, partial curve].
In the case of `COc1ccc(Cl)cc1NC(=S)NNC(=O)C1(C)CC1(Cl)Cl` (stereo unspecified), the Potency is reported as inconclusive: 39.8 µM [quencher, side channel, single point].
`COc1ccc(-c2cc(C(F)(F)F)nc(SCCC(=O)N3CCOCC3)n2)cc1` was tested, and the Potency was inconclusive: 12.6 µM [fluorescent, side channel, partial curve].
For `CCOC(=O)c1sc(NC(=O)c2cc(-c3ccccc3C)nc3ccccc23)c(C#N)c1C`, the Potency was inconclusive: 17.8 µM [quencher, side channel, partial curve].
`CC(C)(C)OC(=O)N1CCC[C@H]1c1nnc(SCc2ccc(Cl)cc2Cl)o1` was tested, and the Potency was inconclusive: 8.91 µM [fluorescent, side channel, full curve, poor fit].
With `C=CCc1cccc(/C=N/NC(=O)CNc2cccc3ccccc23)c1O` the Potency was inconclusive: 25.1 µM [quencher, side channel, partial curve].
In the case of `O=C(CSc1nc(-c2ccccc2)c(-c2ccccc2)[nH]1)NCCN1C(=O)CSC1=O`, the Potency is reported as “inactive”.
In the case of `O=c1c(O)cccc2cc(O)c(O)c(O)c12`, the Potency is reported as inconclusive: 25.1 µM [quencher, side channel, single point].
In the case of `O=C1NC2=C(C(=O)CCC2)C(c2ccc3ncccc3c2)N1` (stereo unspecified), the Potency is reported as “inactive”.
In the case of `O=C(Oc1ccc(/C=N/NC(=O)c2ccccc2O)cc1)c1ccccc1`, the Potency is reported as inconclusive: 17.8 µM [quencher, side channel, partial curve].
For `CCOC(=O)c1c(NC(=O)CN(C)C)sc(C(=O)N(CC)CC)c1C`, the Potency was inconclusive: 14.1 µM [fluorescent, side channel, partial curve].
In the case of `COc1ccc(C(=O)c2sc3nc(-c4ccc(OC)cc4)ccc3c2N)cc1`, the Potency is reported as inconclusive: 10 µM [quencher, side channel, partial curve].
In the case of `OCC1(Cc2ccc(Cl)cc2)CCN(Cc2ccccc2F)CC1`, the Potency is reported as “inactive”.
In the case of `COCCNC(=O)Nc1ccc2nc(-c3ccco3)c(-c3ccco3)nc2c1`, the Potency is reported as inconclusive: 11.2 µM [quencher, side channel, partial curve].
For `CC1(C(=O)N2CCN(Cc3ccccc3Cl)CC2)CC1(Cl)Cl` (stereo unspecified), the Potency was inconclusive: 15.8 µM [fluorescent, side channel, partial curve].
In the case of `Cn1c(=O)n(C)c2cc(C(=O)Nc3ccc(Br)cc3)ccc21`, the Potency is reported as inconclusive: 28.2 µM [fluorescent, side channel, single point].
In the case of `O=c1c2cc(Cl)ccc2nc(-c2ccccc2Cl)n1O`, the Potency is reported as inconclusive: 39.8 µM [inhibitor, single point].
`CCOc1ccc(S(=O)(=O)NCC2CCCO2)cc1NC(=O)c1ccccc1F` (stereo unspecified) was tested, and the Potency was inconclusive: 35.5 µM [fluorescent, side channel, single point].
In the case of `Oc1cc(Br)ccc1C=Nc1ccc(N2CCCCC2)cc1`, the Potency is reported as inconclusive: 22.4 µM [quencher, side channel, single point].
`CCOc1ccc(S(=O)(=O)Nc2ccc(S(=O)(=O)Nc3cc(OC)ccc3OC)cc2)cc1` was tested, and the Potency was inconclusive: 17.8 µM [quencher, side channel, partial curve].
